Source: paper PMC9911399, “Two distinct binding modes provide the RNA-binding protein RbFox with extraordinary sequence specificity”
Substitutions are numbered along the chain they refer to; changes in the protein carry UniProt numbers. The list shows a part of the results.

T1: RBFOX1 RRM (Homo sapiens, UniProt Q9NWB1 109-208)
T1 sequence: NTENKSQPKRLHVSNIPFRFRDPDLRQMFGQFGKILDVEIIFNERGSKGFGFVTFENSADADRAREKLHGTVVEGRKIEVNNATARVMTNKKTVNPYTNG

B1: UUGACCU (DNA:RNA)
RNA: GGGAGACCGGAAUUCAGAUUGUCCUUGACCUUUAAAUCCCGUCGUAGCCACCA
DNA 1: CAATCTGAATTCCGGTCTCCC
DNA 2: TGGTGGCTACGACGGGATT
B2: GCAACUA (DNA:RNA)
RNA: B1 RNA with U25G, U26C, G27A, C30U, U31A
DNA 1: CAATCTGAATTCCGGTCTCCC
DNA 2: TGGTGGCTACGACGGGATT
B3: CUAUAUU (DNA:RNA)
RNA: B1 RNA with U25C, G27A, A28U, C29A, C30U
DNA 1: CAATCTGAATTCCGGTCTCCC
DNA 2: TGGTGGCTACGACGGGATT
B4: UGCUCCA (DNA:RNA)
RNA: B1 RNA with U26G, G27C, A28U, U31A
DNA 1: CAATCTGAATTCCGGTCTCCC
DNA 2: TGGTGGCTACGACGGGATT
B5: GUGGGAG (DNA:RNA)
RNA: B1 RNA with U25G, A28G, C29G, C30A, U31G
DNA 1: CAATCTGAATTCCGGTCTCCC
DNA 2: TGGTGGCTACGACGGGATT
B6: AAUGGAG (DNA:RNA)
RNA: GGGAGACCGGAAUUCAGAUUGUCCAAUGGAGUUAAAUCCCGUCGUAGCCACCA
DNA 1: CAATCTGAATTCCGGTCTCCC
DNA 2: TGGTGGCTACGACGGGATT
B7: ACUGCGC (DNA:RNA)
RNA: B6 RNA with A26C, G29C, A30G, G31C
DNA 1: CAATCTGAATTCCGGTCTCCC
DNA 2: TGGTGGCTACGACGGGATT
B8: GUCACGC (DNA:RNA)
RNA: B1 RNA with U25G, G27C, C30G, U31C
DNA 1: CAATCTGAATTCCGGTCTCCC
DNA 2: TGGTGGCTACGACGGGATT
B9: GACGUAU (DNA:RNA)
RNA: B6 RNA with A25G, U27C, G29U, G31U
DNA 1: CAATCTGAATTCCGGTCTCCC
DNA 2: TGGTGGCTACGACGGGATT

Molecular target: T1, RBFOX1 RRM
Test: EMSA; HiTS-Eq, 1 nM pool, 10 min; buffer printed only for the single-RNA assays: 10 mM Tris pH 7.5, 150 mM NaCl, 3.4 mM EDTA, 0.001% NP-40, 30 C
Settings: tags: His6 N-terminal (pET28a); label: 5' 32P
Summary of the method: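 Relative association constants, normalised to the cognate motif, were derived by comparing read counts of each RNA species with those of the control reaction. The RNA sequenced was the free fraction, separated by 8% native PAGE after a 10 min equilibration in 50 µL of 1 nM 5′-radiolabelled RNA (7 randomized nucleotides) with increasing concentrations of purified wild-type or mutant RbFox RRM.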

Row | Binder | binding signal
1 | B1 | 0.0127 KA relative to UGCAUGU
2 | B2 | 0.0037 KA relative to UGCAUGU
3 | B3 | 0.00384 KA relative to UGCAUGU
4 | B4 | 0.00955 KA relative to UGCAUGU
5 | B5 | 0.0115 KA relative to UGCAUGU
6 | B6 | 0.00389 KA relative to UGCAUGU
7 | B7 | 0.00979 KA relative to UGCAUGU
8 | B8 | 0.0139 KA relative to UGCAUGU
9 | B9 | 0.00701 KA relative to UGCAUGU
